{"source": "PubChem BioAssay AID624202", "about": "(National Center for Advancing Translational Sciences (NCATS), 2012)", "note": "Among all 380,000 compounds or so, about 4,000 (1.1%) were called active. Inconclusive means that the source gave no clear call. Such entries were picked first, then a sample of the others. Calls come from the whole dose curve; as a rule, active = well fitted activation curve with a large enough effect; inconclusive = small, poorly fitted or top-dose-only effect; inactive = no such curve, though single readings can be large or run the other way. Where the call is inconclusive, the potency comes from a doubtful curve fit. Potency is the fitted concentration of half-maximal effect; tags give direction and shape of the fitted curve.", "data": [{"experiment": "qHTS Assay to Identify Small Molecule Activators of BRCA1 Expression; note: nearly all actives have a fitted effect of over 80% in size", "settings": "MCF7-BRCA1-FFLuc reporter, luminescence, 48 h; series mostly up to 46.1 µM", "how_it_was_run": "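Compounds are tested at multiple concentrations on MCF7 BRCA1-luciferase reporter cells seeded at 2000 per well; after 48 h, a single luminescence end-point is taken and curves fitted to the normalized data.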", "values": [{"smiles": "C/C(=N\\OC(=O)c1ccc(Cl)cc1)c1sc(-c2ccccc2)nc1C", "Potency": "active: 3.98 µM"}, {"smiles": "COc1ccc(NN=Nc2ccc([N+](=O)[O-])cc2)cc1", "Potency": "inconclusive: 11.2 µM [activator, partial curve, poor fit]"}, {"smiles": "Fc1ccc(C(c2nnnn2CCc2ccccc2)N2CCCc3ccccc32)cc1", "note": "(centres undefined)", "Potency": "inactive"}, {"smiles": "O=C(NCCSc1ccccn1)c1ccc(Cl)cc1Cl", "Potency": "inconclusive: 2 µM [activator, full curve, poor fit]"}, {"smiles": "CN(C)c1oc(-c2ccc(OCc3ccccc3)cc2)nc1C#N", "Potency": "inconclusive: 14.1 µM [activator, partial curve, poor fit]"}, {"smiles": "Cc1cnc(NC(=O)c2cncc(Br)c2)s1", "Potency": "inconclusive: 0.562 µM [activator, full curve, poor fit]"}, {"smiles": "CN(C)NC(=O)C12CCC(C)(C(=O)O1)C2(C)C", "note": "(centres undefined)", "Potency": "inactive"}, {"smiles": "CC(NC(=O)Cc1ccc(-c2ccccc2)cc1)c1ccccc1", "note": "(centres undefined)", "Potency": "inactive"}, {"smiles": "Clc1ccc2nc(-c3ccco3)c(Cc3ccccc3)n2c1", "Potency": "inactive"}, {"smiles": "Cc1ccc(S(=O)(=O)n2nc(-c3ccco3)nc2SCc2ccccc2)cc1", "Potency": "active: 11.2 µM"}, {"smiles": "Cc1ccc(N2CCN(C(=O)CCc3c(C)nc4c(c3C)c(=O)n(C)c(=O)n4C)CC2)c(C)c1", "Potency": "inactive"}, {"smiles": "Cc1ccc2cc3c(nc2c1)OCC3", "Potency": "inconclusive: 14.1 µM [activator, partial curve, poor fit]"}, {"smiles": "Cc1ccc(-c2csc(N)n2)s1", "Potency": "inconclusive: 11.2 µM [activator, partial curve, poor fit]"}, {"smiles": "CC(=O)c1sc(NC(=O)c2ccc(C)c(C)c2)nc1C", "Potency": "inconclusive: 1.26 µM [activator, full curve, poor fit]"}, {"smiles": "COc1ccc(NC(=O)N/C=C/c2ccccc2)cc1", "Potency": "inconclusive: 2 µM [activator, full curve, poor fit]"}, {"smiles": "CCCOc1ccc(C(=O)Nc2ccc(Cl)cn2)cc1", "Potency": "inconclusive: 1.41 µM [activator, full curve, poor fit]"}, {"smiles": "CCCCC(CCC(=O)NNC(=O)Cc1ccccc1)C(=O)O", "note": "(centres undefined)", "Potency": "inconclusive: 31.6 µM [activator, single point]"}, {"smiles": "O=C(c1cc(-c2ccc(Br)cc2)nc2ccccc12)N1CCC1", "Potency": "inactive"}, {"smiles": "O=C(CSc1ccc(Cl)cc1)Nc1ccccc1N1CCN(C(=O)c2ccc(Cl)cc2)CC1", "Potency": "inactive"}, {"smiles": "Oc1ccc(-c2nnc(-c3ccc(O)cc3)nn2)cc1", "Potency": "inconclusive: 1.78 µM [activator, full curve, poor fit]"}, {"smiles": "O=C(NCC(=O)N1CCC(Cc2ccccc2)CC1)c1ccccc1F", "Potency": "inconclusive: 7.08 µM [activator, partial curve, poor fit]"}, {"smiles": "CC(=O)Nc1cccc(OCC(O)Cn2c(C)nc3ccccc32)c1", "note": "(centres undefined)", "Potency": "inactive"}, {"smiles": "Cn1c(/C=C/c2ccc(Cl)cc2)c([N+](=O)[O-])c(=O)n(C)c1=O", "Potency": "inactive"}, {"smiles": "COc1ccc(NC(=O)CSc2ccccc2)c(OC)c1", "Potency": "inconclusive: 10 µM [activator, partial curve, poor fit]"}, {"smiles": "O=C(Nc1ccc(CN2CCOCC2)cc1)c1ccc(Br)o1", "Potency": "inconclusive: 2 µM [activator, partial curve, poor fit]"}, {"smiles": "Cc1cccc(OCc2nc(-c3nonc3N)no2)c1C", "Potency": "inconclusive: 10 µM [activator, partial curve, poor fit]"}, {"smiles": "Nc1ccc2c(c1)sc1ccccc12", "Potency": "inconclusive: 2 µM [activator, partial curve, poor fit]"}, {"smiles": "COc1ccc(CCn2c(N)c(C(=O)NCc3ccco3)c3nc4ccccc4nc32)cc1", "Potency": "inactive"}, {"smiles": "Cn1c(C(=O)NC2CCCCC2)cc2sccc21", "Potency": "active: 5.62 µM"}, {"smiles": "CSc1ccc(NC(=O)C2(C)CCN2C(=O)c2ccccc2CCc2ccccc2)cc1", "note": "(centres undefined)", "Potency": "inactive"}, {"smiles": "O=C(Nc1ccc(F)cc1)Nc1ccccc1F", "Potency": "inconclusive: 1.58 µM [activator, full curve, poor fit]"}, {"smiles": "CCc1ccc(Oc2cc(C)nc(N)n2)cc1", "Potency": "active: 3.16 µM"}, {"smiles": "CCN(CC)c1ccc(/C=N/NC(=O)c2ccc(Br)o2)cc1", "Potency": "inconclusive: 1.26 µM [activator, partial curve, poor fit]"}, {"smiles": "O=C(N/N=C1\\CCc2ccccc21)c1ccccc1Cl", "Potency": "active: 2 µM"}, {"smiles": "Cc1cc(Cl)c2oc(C(=O)N3CCN(C(=O)c4ccco4)CC3)c(C)c2c1", "Potency": "inconclusive: 10 µM [activator, partial curve, poor fit]"}, {"smiles": "O=C(NC(=O)c1ccccc1)Nc1ccc(-c2cnco2)cc1", "Potency": "inconclusive: 7.08 µM [activator, partial curve, poor fit]"}, {"smiles": "COC(=O)c1cccc(NC(=O)CCc2ccccc2)c1", "Potency": "active: 7.94 µM"}, {"smiles": "O=C(/C=C/c1ccc(F)cc1)NC(=S)N1CCN(c2ccccn2)CC1", "Potency": "inconclusive: 10 µM [activator, partial curve, poor fit]"}, {"smiles": "Oc1ccc(-c2csc(Nc3ccc4c(c3)OCO4)n2)c(O)c1", "Potency": "inconclusive: 17.8 µM [activator, single point]"}, {"smiles": "COc1ccc(-c2nnc(-c3ccc(N)cc3)o2)cc1", "Potency": "inconclusive: 7.08 µM [activator, partial curve, poor fit]"}, {"smiles": "CCc1ccc2[nH]c(=O)c(CN(CCN(CC)CC)C(=O)NC3CCCCC3)cc2c1", "Potency": "inactive"}, {"smiles": "N/C(=N\\OC(=O)CCC1CCCC1)c1ccc([N+](=O)[O-])cc1", "Potency": "inconclusive: 35.5 µM [activator, single point]"}, {"smiles": "COc1ccc(C(=O)NC2CC2)cc1OC1CCN(Cc2ccccc2)CC1", "Potency": "inactive"}, {"smiles": "CCOC(=O)CSC1=NC(=O)/C(=C\\c2ccc(Cl)cc2)S1", "Potency": "inconclusive: 10 µM [activator, partial curve, poor fit]"}, {"smiles": "COc1cc(CN2CCCCC2)ccc1OCc1ccccc1", "Potency": "active: 10 µM"}, {"smiles": "COc1ccc2c(c1OC)C(=O)N(c1ccc(O)cc1)C2", "Potency": "active: 4.47 µM"}, {"smiles": "NC(Cc1ccc(F)cc1)c1csc(Nc2ccc(C(=O)c3ccccc3)cc2)n1", "note": "(centres undefined)", "Potency": "inactive"}, {"smiles": "COc1ccc(OCC(=O)Nc2cc(-c3nn(C)c(=O)c4ccccc34)ccc2OC)cc1", "Potency": "inactive"}, {"smiles": "O=[N+]([O-])c1cccc(N/N=C/c2ccc(N3CCOCC3)cc2)c1", "Potency": "inconclusive: 1.58 µM [activator, partial curve, poor fit]"}]}]}
